Drawing on paper PMC12489471, “A multi-dentate, cooperative interaction between endo- and exo-ribonucleases within the bacterial RNA degradosome” (Nucleic Acids Research, 2025), this text covers binding for four substances.

Protein sequences, listed by entry. Tags and fused reporters are not part of them. Residues count along the entry.
UniProt Q9HZM8, residues 883-1057: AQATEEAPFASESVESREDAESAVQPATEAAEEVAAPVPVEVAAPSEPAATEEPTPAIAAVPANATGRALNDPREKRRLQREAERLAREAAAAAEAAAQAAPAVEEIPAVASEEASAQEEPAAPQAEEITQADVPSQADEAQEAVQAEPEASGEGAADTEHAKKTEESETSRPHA
RNase E 960–1061 (P21513, residues 960-1061): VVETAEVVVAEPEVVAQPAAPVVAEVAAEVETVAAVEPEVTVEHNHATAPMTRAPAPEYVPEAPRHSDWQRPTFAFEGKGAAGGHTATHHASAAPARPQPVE
RNase E 960–1039 (P21513, residues 960-1039): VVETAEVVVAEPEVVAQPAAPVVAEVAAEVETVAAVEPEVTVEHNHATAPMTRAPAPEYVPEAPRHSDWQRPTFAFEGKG
RNase E 1000–1061 (P21513, residues 1000-1061): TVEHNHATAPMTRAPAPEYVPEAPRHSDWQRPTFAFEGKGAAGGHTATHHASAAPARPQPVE

Assay [1] deals with T1, P. aeruginosa PNPase core (Pseudomonas aeruginosa (strain PAO1)) (UniProt Q9HV59).
T1 sequence: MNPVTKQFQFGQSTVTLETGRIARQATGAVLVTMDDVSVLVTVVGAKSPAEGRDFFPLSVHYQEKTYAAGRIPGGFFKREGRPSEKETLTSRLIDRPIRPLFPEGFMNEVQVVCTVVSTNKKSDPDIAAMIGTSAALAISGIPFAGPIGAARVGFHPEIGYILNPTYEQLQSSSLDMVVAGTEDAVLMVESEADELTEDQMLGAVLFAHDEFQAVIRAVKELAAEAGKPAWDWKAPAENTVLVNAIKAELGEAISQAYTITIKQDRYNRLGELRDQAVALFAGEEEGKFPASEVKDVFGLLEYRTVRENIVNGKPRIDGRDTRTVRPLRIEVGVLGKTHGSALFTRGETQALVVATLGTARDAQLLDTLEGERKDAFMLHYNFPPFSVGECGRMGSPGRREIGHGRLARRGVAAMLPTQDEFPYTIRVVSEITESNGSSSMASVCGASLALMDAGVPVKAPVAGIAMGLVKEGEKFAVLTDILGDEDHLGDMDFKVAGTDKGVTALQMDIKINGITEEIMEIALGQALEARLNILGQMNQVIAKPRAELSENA
Description: cryo-EM structure; P. aeruginosa PNPase core assembled with MBP-tagged RNase E C-terminal end; both purified.

The target of assay [2] is T2, PNPase carrying a C-terminal Hisx6 tag (E. coli polynucleotide phosphorylase) (E. coli) (UniProt P05055).
T2 sequence: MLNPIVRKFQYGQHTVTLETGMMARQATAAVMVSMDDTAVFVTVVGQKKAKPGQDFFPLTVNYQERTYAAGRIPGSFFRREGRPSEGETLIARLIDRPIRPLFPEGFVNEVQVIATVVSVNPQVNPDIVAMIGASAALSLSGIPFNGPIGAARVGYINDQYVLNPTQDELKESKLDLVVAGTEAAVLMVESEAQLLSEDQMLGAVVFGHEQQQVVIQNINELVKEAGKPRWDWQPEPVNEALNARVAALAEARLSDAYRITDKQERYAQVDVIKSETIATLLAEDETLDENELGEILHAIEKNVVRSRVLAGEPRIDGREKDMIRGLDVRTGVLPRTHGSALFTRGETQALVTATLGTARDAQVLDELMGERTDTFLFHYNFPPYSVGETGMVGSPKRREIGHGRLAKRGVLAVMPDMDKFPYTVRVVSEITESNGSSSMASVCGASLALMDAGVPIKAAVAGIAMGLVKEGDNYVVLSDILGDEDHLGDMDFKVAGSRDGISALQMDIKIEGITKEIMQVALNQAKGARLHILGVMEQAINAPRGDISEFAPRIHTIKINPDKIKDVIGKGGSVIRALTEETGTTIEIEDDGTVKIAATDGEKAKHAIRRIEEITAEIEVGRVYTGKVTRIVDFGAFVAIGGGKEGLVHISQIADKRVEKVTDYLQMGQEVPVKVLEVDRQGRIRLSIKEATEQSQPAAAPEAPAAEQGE
Description: condition: 9000 nM (highest concentration, told in the methods for RNase E 960–1038); SPR; PNPase with C-terminal His6 tag immobilised on Series S Sensor Chip NTA (5 RU); Biacore T200, 25°C; 20 mM HEPES pH 7.2, 150 mM NaCl, 5 mM MgCl2, 0.5 mM TCEP, 0.05% Tween 20; six peptide concentrations up to 9000 nM (up to 5000 nM for RNase E 985–1061); contact 60 s, dissociation 120 s; both …. In general terms: Surface plasmon resonance follows binding to a sensor surface in real time, without labels.

In assay [3] the target is T3, PNPase (E. coli polynucleotide phosphorylase, full-length) (E. coli) (UniProt P05055).
T3 sequence: T2 sequence
Description: cryo-EM structure; preliminary map of full-length PNPase co-expressed and co-purified with RNase E 960–1061.

Assay [4] concerns the target T4, E. coli PNPase core (E. coli, UniProt P05055 1-552).
T4 construct: polynucleotide phosphorylase (PNPase) core lacking the KH and S1 domains, E. coli, aa 1–552 by the methods (1–550 in the results and a legend); also called PNPase core (1–550); PNPase core (aa 1–552); source: E. coli Evo21(DE3), purified (Ni-NTA, intein cleavage, HIC, Q, Superdex 200); not shown: Mycobacterium xenopi GyrA intein, C-terminal, cleaved; His8, C-terminal, cleaved
T4 sequence (looked up): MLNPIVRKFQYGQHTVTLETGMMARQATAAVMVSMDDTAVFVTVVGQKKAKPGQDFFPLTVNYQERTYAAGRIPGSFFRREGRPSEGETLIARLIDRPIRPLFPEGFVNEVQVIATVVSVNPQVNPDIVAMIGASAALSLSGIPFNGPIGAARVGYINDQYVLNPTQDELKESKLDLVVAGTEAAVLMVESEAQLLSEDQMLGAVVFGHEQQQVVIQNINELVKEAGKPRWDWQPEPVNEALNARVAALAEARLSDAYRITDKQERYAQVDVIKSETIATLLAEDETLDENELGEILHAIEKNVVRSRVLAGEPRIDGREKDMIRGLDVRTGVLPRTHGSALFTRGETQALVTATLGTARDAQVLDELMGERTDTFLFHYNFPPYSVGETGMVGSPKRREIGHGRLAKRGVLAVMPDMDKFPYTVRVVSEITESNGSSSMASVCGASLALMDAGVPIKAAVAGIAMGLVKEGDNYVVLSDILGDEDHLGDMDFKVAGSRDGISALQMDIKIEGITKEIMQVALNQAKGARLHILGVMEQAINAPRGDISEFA
Description: cryo-EM structure; PNPase core with RNase E peptide 960–1061; resolution of the peptide insufficient to align the sequence.

Assay [5] concerns the target T3, PNPase (E. coli polynucleotide phosphorylase, full-length) (E. coli). Description: co-purification; PNPase and RNase E 1000–1061 co-expressed in E. coli BL21(DE3), purified together by ammonium sulfate, Q, butyl-Sepharose HIC and Superdex 200.

Results are given in words; binding and its absence hold for the method and conditions named. Some results given as binding are weak or reduced against the parent protein; the word gives no strength. For some assays here: Where a sequence is shown, tags or fusion partners need not be part of it.

Turning to “P. aeruginosa MBP-tagged C-terminal end of RNase E (883 – 1057) (from UniProt Q9HZM8 883-1057) (domain or fragment)”, in assay [1], the binding result is recorded as “binds”.

Take “RNase E 960–1039 (from UniProt P21513 960-1039) (domain or fragment)”: in assay [2], the binding entry was “no binding”. Consider “RNase E 960–1061 (from UniProt P21513 960-1061) (domain or fragment)”, for which the binding result in assay [3] and in assay [4] was “binds” each time. As to “RNase E 1000–1061 (from UniProt P21513 1000-1061) (domain or fragment)”, the binding entry in assay [5] was “binds”.
